Laboratory results as given in PubChem BioAssay AID504832 (National Center for Advancing Translational Sciences (NCATS), 2011).
Out of some 310,000 compounds screened, about 18,000 (5.8%) were called active. The shares of active, inactive and inconclusive entries below differ from those in the screen. Calls follow the shape of the dose curve; as a rule, active = well fitted inhibition curve with a large enough effect; inconclusive = small, poorly fitted or top-dose-only effect, or another doubt; inactive = no such curve, though single readings can be large or run the other way. No potency is given beside an inconclusive call; the fits are too rough.

Assay: Primary qHTS for delayed death inhibitors of the malarial parasite plastid, 48 hour incubation
Settings: P. falciparum luciferase growth in erythrocytes; series mostly up to 28.7 µM
How it was run: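 Growth was read as firefly luciferase luminescence after a 48 h, 37 C, 5% CO2 exposure of compounds to reporter-bearing P. falciparum cultures (0.1% parasitemia, 2% hematocrit final) in Albumax-supplemented RPMI 1640.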
Potency is read from the fitted curve at half-maximal effect; tags tell the direction and shape of the fitted curve.

| Structure (SMILES) | Potency |
| --- | --- |
| CC1CCCN(CCCNC(=O)c2cc3c(s2)-c2ccccc2OC3)C1 (stereo not drawn) | inconclusive [inhibitor, full curve, poor fit] |
| COc1ccc(CNC(=O)CN(C(=O)c2cc3sccc3n2C)C2CCCC2)cc1 | inactive |
| O=C(Cn1nnc(-c2cc(Cl)ccc2-n2cnnn2)n1)N1CCCc2ccccc21 | inconclusive [inhibitor, single point] |
| CCc1cc(=O)oc2cc(C)c(CN3CCCC3)c(O)c12 | inconclusive [inhibitor, single point] |
| Cc1ccccc1-n1c(=O)cc(NCc2ccc3c(c2)OCO3)[nH]c1=O | active: 9.28 µM |
| N=c1c(C(=O)NCCc2ccccc2)cc2c(=O)n3ccccc3nc2n1Cc1ccco1 | active: 2.33 µM |
| C(=N\Nc1nc2ccccc2[nH]1)/C1CCCCC1 | inconclusive [inhibitor, single point] |
| COc1ccc(-c2nc(CN3CCC(C(=O)N4CCOCC4)CC3)c(C)o2)cc1C | inconclusive [inhibitor, single point] |
| O=C(NCCCN1CCOCC1)c1ccc(CSc2ccc(Cl)cc2)cc1 | inconclusive [inhibitor, single point] |
| CCN(CC)CCNC(=O)c1cn(CC)c2cc(N3CCN(C)CC3)c(F)cc2c1=O | inconclusive [inhibitor, single point] |
| Brc1ccc(-c2nnc(-c3ccc4c(c3)OCO4)o2)o1 | inactive |
| CCOC(CNC(=O)CN1C(=O)COc2ccc(S(=O)(=O)N3CCOCC3)cc21)OCC | inactive |
| COc1cccc(CNn2cnnc2)c1O | inactive |
| O=S(=O)(c1ccccc1)N1CCN(C(=S)NC2CCCC2)CC1 | inconclusive [inhibitor, single point] |
| CCN(CCCNC(=O)CCNC(=O)Cn1cnc2ccccc2c1=O)c1ccccc1 | inactive |
| COC(=O)C1=CN(Cc2ccc(OC)c(OC)c2)C=C(C(=O)OC)C1c1cccs1 | inconclusive [inhibitor, partial curve] |
| Cc1ccc(N2C(=O)N(CC(=O)Nc3c(C)cc(C)cc3Cl)C(=O)C2C)cc1 (stereo not drawn) | inconclusive [inhibitor, single point] |
| O=C(COc1ccc(Br)cc1)NCc1cn2ccccc2n1 | inactive |
| CCOc1cc(-c2noc(N)c2C#N)cc(OCC)c1OCC | inconclusive [inhibitor, full curve, poor fit] |
| CCC1CCCCN1Cc1nc2c(c(=O)n(C)c(=O)n2C)n1Cc1cccc2ccccc12 (stereo not drawn) | inconclusive [inhibitor, partial curve, poor fit] |
| C=CCn1c(CCC(=O)Nc2ccc(C)c(Cl)c2)nnc1SCC(=O)Nc1ccccc1C | inconclusive [inhibitor, partial curve] |
| O=C(CCC1CCCN(C(=O)c2cc(C3CC3)[nH]n2)C1)N1CCN(c2ccccn2)CC1 (stereo not drawn) | inconclusive [inhibitor, partial curve] |
| CCOC(=O)CC1CCCCN1Cc1cn[nH]c1-c1ccc(F)cc1F (stereo not drawn) | inactive |

| Structure (SMILES) | Potency |
| --- | --- |
| CCN(CC(=O)Nc1c(F)cccc1F)C(=O)CCCc1cccs1 | inconclusive [inhibitor, single point] |
| COc1cccc(C(=O)NCc2ccc3[nH]c(C)cc3c2)c1 | inconclusive [inhibitor, full curve, poor fit] |
| CCOc1ccc(C2C(C#N)=C(N)Oc3cc(C)[nH]c(=O)c32)cc1OC (stereo not drawn) | inconclusive [inhibitor, single point] |
| COCCCNC(=O)/C(C#N)=C/c1c(N2CCN(c3ccccc3)CC2)nc2c(C)cccn2c1=O | active: 13.1 µM |
| COc1cc(C2SCC(=O)Nc3c2c(C)nn3-c2ccccc2)cc(OC)c1OC (stereo not drawn) | inconclusive [inhibitor, partial curve] |
| O=C(CNc1ccc(Br)cc1)NNC1=NCCC1 | inactive |
| CN1CCN(/N=C/c2ccc(-c3ccc([N+](=O)[O-])cc3Cl)o2)CC1 | inconclusive [inhibitor, single point] |
| CCCn1c(SCC(=O)N2CCc3ccccc32)nnc1-c1ccco1 | inconclusive [inhibitor, full curve, poor fit] |
| CCCCn1c(=O)n(C)c(=O)c2c(C(F)(F)F)cc(-c3ccncc3)nc21 | inconclusive [inhibitor, single point] |
| NNC(=O)c1cc2cc3ccccc3nc2s1 | inconclusive [inhibitor, single point] |
| Cc1cnc(NC(=O)CSc2nnc3ncccn23)s1 | inconclusive [inhibitor, partial curve] |
| CCc1cc2c(=O)c(-c3ccc4c(c3)OCCO4)coc2cc1OC(=O)c1ccco1 | inactive |
| COC(=O)CN1C(=S)N(Cc2ccccc2)C(=O)C1CC(=O)Nc1ccc(Br)cc1 (stereo not drawn) | active: 14.7 µM |
| Cc1ccc(NS(=O)(=O)c2ccc3c(c2)n(C)c(=O)n3C)cc1C | inconclusive [inhibitor, single point] |
| O=c1[nH]ncc(N2CCN(Cc3ccccc3)CC2)c1Cl | inconclusive [inhibitor, single point] |
| O=C(CS(=O)(=O)c1ccccc1)Nc1nc(-c2ccc(F)cc2)cs1 | inactive |
| O=S(=O)(Nc1cccc(Br)c1)c1cccc2nsnc12 | inactive |
| CC1CCCCN1S(=O)(=O)c1ccc(C(=O)Nc2nnc(-c3ccncc3)o2)cc1 (stereo not drawn) | inconclusive [inhibitor, single point] |
| Cc1ccc(C)c(-n2c(C)cc(/C=N/NC(=O)c3c(C)nc4cc(C)ccn34)c2C)c1 | inconclusive [inhibitor, single point] |
| NC(=O)C1CCCN(Cc2c(C(=O)N3CCc4ccccc4C3)nc3ccc(Cl)cn23)C1 (stereo not drawn) | inconclusive [inhibitor, partial curve, poor fit] |
| Nc1c(C(=O)OCC2CCCO2)c2nc3ccccc3nc2n1C1CCCCC1 (stereo not drawn) | inconclusive [inhibitor, single point] |
| Cc1cc2cc(CCNC(=O)c3c(-c4ccccc4Cl)noc3C)c(=O)[nH]c2cc1C | inconclusive [inhibitor, partial curve] |
| CC(=O)Nc1cccc(NC(=O)c2cc([N+](=O)[O-])ccc2N2CCCCC2)c1 | inconclusive [inhibitor, single point] |

| Structure (SMILES) | Potency |
| --- | --- |
| CC(C)(C)c1ccccc1NC(=S)NC1CCCCC1 | inconclusive [inhibitor, partial curve, poor fit] |
| CCN(c1ccccc1)S(=O)(=O)c1ccc(Oc2ccc(C(C)=O)cc2OC)nc1 | inconclusive [inhibitor, single point] |
| CC(C)=CCc1c(O)cc2oc3c(CC=C(C)C)c(O)c(O)c(CC=C(C)C)c3c(=O)c2c1O | active: 13.1 µM |
| CCCN1C(=O)c2cc(C(=O)Nc3ccc(OC)cc3OC)ccc2C1Nc1ccc(OC)cc1OC (stereo not drawn) | inconclusive [inhibitor, partial curve, poor fit] |
| N#Cc1nc(-c2ccc(Cl)cc2)oc1NCc1ccco1 | inactive |
| CN1C2CCC1CC(=NO)C2 | inconclusive [inhibitor, full curve, poor fit] |
| Nc1nc2ccccc2n1C(=O)c1ccco1 | inactive |
| COCCNC(=S)Nc1ccc(N2CCOCC2)c(S(=O)(=O)Nc2ccccc2OC)c1 | inconclusive [inhibitor, partial curve, poor fit] |
| C/C=C(\C)C(=O)NNC(=O)c1sc(-c2ccccc2)nc1C | inactive |
| Cc1ccc(S(=O)(=O)Nc2cccc3ncccc23)s1 | inconclusive [inhibitor, partial curve, poor fit] |
| CCc1c(O)nc(SCC(=O)Nc2nc3ccccc3s2)n(-c2ccccc2)c1=O | inactive |
| O=C(NNC(=O)c1sccc1-n1cccc1)c1cccc(Cl)c1 | inconclusive [inhibitor, partial curve] |
| Cc1ccc(N2CC(C(=O)Nc3cc(Cl)ccc3-n3cncn3)CC2=O)cc1 (stereo not drawn) | inactive |
| O=c1cc2c(nn1Cc1ccccc1)-c1ccccc1CC2 | inconclusive [inhibitor, full curve, poor fit] |
| COc1ccccc1/C=N/NC(=O)C(=O)NCc1cccnc1 | inactive |
| COc1ccc(C(=O)NC(C)c2nnc(SCc3ccc(Cl)c(Cl)c3)n2C)cc1 (stereo not drawn) | inconclusive [inhibitor, single point] |
| O=C(c1ncn(Cc2ccccc2)c1C(=O)N1CCc2ccccc2C1)N1CCc2ccccc2C1 | active: 1.47 µM |
| CN(C)C(CNC(=O)C1CCN(S(=O)(=O)c2ccc(Cl)cc2)CC1)c1ccccc1 (stereo not drawn) | inconclusive [inhibitor, partial curve, poor fit] |
| COc1ccc(NC(=O)/C(=C\c2ccc(OS(=O)(=O)c3ccc(C)cc3)cc2)NC(=O)c2ccccc2)cc1 | inconclusive [inhibitor, partial curve] |
| Fc1cccc(Nc2c3c(nc4ccccc24)CCC3)c1 | inconclusive [inhibitor, partial curve, poor fit] |
| COc1cccc(CNC(=O)c2ccc(S(=O)(=O)N3CCOCC3)cc2)c1 | inconclusive [inhibitor, single point] |
| CC1CC(C)(C)OC(C[N+]2(C)CCCCC2)O1 (stereo not drawn) | inconclusive [inhibitor, partial curve] |
